The densities may have been worked out from excess volumes.
Assay: xn = mol fraction of the nth substance listed
Details: 100 kPa

COCCO + CCOCCOCC
x1 = 1
Details	mass density [kg/m3]
298.15 K	960.2
308.15 K	951.5

COCCOCCO + CCOCCOCC
x1 = 1
Details	mass density [kg/m3]
298.15 K	1016.4
308.15 K	1007.6

COCCOCCOCCO + CCOCCOCC
Details	mass density [kg/m3]
308.15 K, x1 = 1	1034.3

CCOCCOCC + COCCO
mass density [kg/m3]
Details	298.15 K	308.15 K
x1 = 0.0157	957	948.3
x2 = 0	836.2	827.6
x2 = 0.0142	837.3	828.7
x2 = 0.0354	–	830.3
x2 = 0.0658	841.3	832.8
x2 = 0.0821	842.6	834.1
x2 = 0.1085	844.8	836.2
x2 = 0.1503	848.3	839.7
x2 = 0.2016	852.8	844.2
x2 = 0.28	–	851.3
x2 = 0.3202	863.9	855.2
x2 = 0.3604	867.9	859.2
x2 = 0.4322	875.5	866.7
x2 = 0.5152	884.9	876.1
x2 = 0.5455	888.5	879.7
x2 = 0.5957	–	885.9
x2 = 0.6464	–	892.6
x2 = 0.7119	910.5	901.7
x2 = 0.7472	–	906.9
x2 = 0.8023	924.3	915.5
x2 = 0.8705	935.7	927
x2 = 0.9222	945	936.3
x2 = 0.9592	950.7	942

CCOCCOCC + COCCOCCO
mass density [kg/m3]
Details	298.15 K	308.15 K
x1 = 0.0146	–	1004.7
x2 = 0	836.2	827.6
x2 = 0.0162	–	830.3
x2 = 0.0416	843.1	834.4
x2 = 0.0613	–	837.7
x2 = 0.0967	852.2	843.6
x2 = 0.1691	–	855.6
x2 = 0.2291	874.5	–
x2 = 0.2741	882.2	–
x2 = 0.3082	888	879.3
x2 = 0.344	894.2	885.5
x2 = 0.4006	904.1	895.3
x2 = 0.4593	914.5	905.7
x2 = 0.5082	923.2	914.4
x2 = 0.5635	933.2	924.4
x2 = 0.6145	–	933.7
x2 = 0.6552	950.1	943.1
x2 = 0.6969	957.9	949
x2 = 0.8075	978.8	970
x2 = 0.8567	988.3	979.5
x2 = 0.9074	998.2	–
x2 = 0.9515	1006.8	998

CCOCCOCC + COCCOCCOCCO
mass density [kg/m3]
Details	298.15 K	308.15 K
x2 = 0	–	827.6
x2 = 0.0126	839.3	830.7
x2 = 0.0328	844.3	835.6
x2 = 0.052	849	–
x2 = 0.0807	855.9	847.2
x2 = 0.1339	868.5	859.8
x2 = 0.1806	879.4	870.6
x2 = 0.2394	892.8	884
x2 = 0.2918	904.5	895.7
x2 = 0.342	915.5	906.7
x2 = 0.385	924.8	916
x2 = 0.4103	930.1	–
x2 = 0.4604	940.7	931.9
x2 = 0.5091	950.8	941.9
x2 = 0.5505	959.2	950.4
x2 = 0.5978	968.7	959.8
x2 = 0.6522	979.4	970.6
x2 = 0.7117	990.9	982.1
x2 = 0.7976	1007	998.2
x2 = 0.8577	1018	1009.3
x2 = 0.9256	1030.1	1021.4
x2 = 0.9633	1037.1	1028.3
